The text below walks through data of paper PMC8807876.

The target of assay [1] is T1, endogenous MTBP (human (endogenous in 293T)) (UniProt Q96DY7).
T1 sequence: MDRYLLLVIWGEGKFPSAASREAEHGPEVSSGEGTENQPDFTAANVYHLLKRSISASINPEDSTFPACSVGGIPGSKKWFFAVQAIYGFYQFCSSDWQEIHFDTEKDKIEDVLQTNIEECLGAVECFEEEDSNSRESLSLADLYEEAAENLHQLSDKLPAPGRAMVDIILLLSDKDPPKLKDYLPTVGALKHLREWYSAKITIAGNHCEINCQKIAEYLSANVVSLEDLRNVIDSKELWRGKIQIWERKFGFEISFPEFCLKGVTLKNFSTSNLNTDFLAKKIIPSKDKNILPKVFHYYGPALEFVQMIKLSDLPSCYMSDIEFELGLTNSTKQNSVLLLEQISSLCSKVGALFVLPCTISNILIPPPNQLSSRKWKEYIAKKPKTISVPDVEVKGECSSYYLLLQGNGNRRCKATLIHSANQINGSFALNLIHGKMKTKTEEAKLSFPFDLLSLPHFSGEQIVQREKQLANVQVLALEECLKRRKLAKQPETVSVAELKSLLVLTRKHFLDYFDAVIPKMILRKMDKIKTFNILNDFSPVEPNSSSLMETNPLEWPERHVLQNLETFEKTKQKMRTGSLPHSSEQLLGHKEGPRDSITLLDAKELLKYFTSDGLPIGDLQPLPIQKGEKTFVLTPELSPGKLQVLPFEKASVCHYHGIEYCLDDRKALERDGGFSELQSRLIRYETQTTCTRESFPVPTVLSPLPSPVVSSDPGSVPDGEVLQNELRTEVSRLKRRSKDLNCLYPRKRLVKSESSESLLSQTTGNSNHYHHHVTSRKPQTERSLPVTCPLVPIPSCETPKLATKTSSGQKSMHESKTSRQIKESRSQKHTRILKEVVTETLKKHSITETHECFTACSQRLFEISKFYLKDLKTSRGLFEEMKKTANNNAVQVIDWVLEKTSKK
Nature of the assay: co-IP; Fig 3B: N-terminally 3HA-tagged Treslin/TICRR fragments transiently transfected into 293T; IP of endogenous MTBP with rabbit anti-MTBP (amino acids 1-284) on protein G magnetic beads, control IgG IP; 20 mM Hepes, 200 mM NaCl, 10% glycerol, 0.1% Triton; anti-HA immunoblot.

The target of assay [2] is GFP-Flag-Treslin/TICRR-WT (human) (UniProt Q7Z2Z1). Nature of the assay: co-IP; Fig 4D: GFP-Flag-Treslin/TICRR-WT or core transiently transfected into 293T; native lysates (20 mM Hepes, 300 mM NaCl, 10% glycerol, 0.1% Triton, 2 mM EDTA), anti-GFP nanobody IP or empty control beads; immunoblot with rat anti-MTBP (12H7).

No constants are given. Whether binding was seen depends on the method and setting. Binding seen in cells or lysates may run through a third protein. Some entries that bind do so weakly or less than the wild type.

B1: 3HA-Treslin/TICRR, N-terminal 486 amino acids (domain or fragment, UniProt Q7Z2Z1 1-486)
chain: MACCHKVMLLLDTAGGAARHSRVRRAALRLLTYLSCRFGLARVHWAFKFFDSQGARSRPSRVSDFRELGSRSWEDFEEELEARLEDRAHLPGPAPRATHTHGALMETLLDYQWDRPEITSPTKPILRSSGRRLLDVESEAKEAEAALGGLVNAVFLLAPCPHSQRELLQFVSGCEAQAQRLPPTPKQVMEKLLPKRVREVMVARKITFYWVDTTEWSKLWESPDHLGYWTVCELLHHGGGTVLPSESFSWDFAQAGEMLLRSGIKLSSEPHLSPWISMLPTDATLNRLLYNSPEYEASFPRMEGMLFLPVEAGKEIQETWTVTLEPLAMHQRHFQKPVRIFLKGSVAQWSLPTSSTLGTDSWMLGSPEESTATQRLLFQQLVSRLTAEELHLVADVDPGEGRPPITGVISPLSASAMILTVCRTKEAEFQRHVLQTAVADSPRDTASLFSDVVDSILNQTHDSLADTASAASPVPEWAQQELGHTT
B1: in assay [1], the binding result is listed as “no binding”.

B2: 3HA-Treslin/TICRR, N-terminal 557 amino acids (domain or fragment, UniProt Q7Z2Z1 1-557)
chain: MACCHKVMLLLDTAGGAARHSRVRRAALRLLTYLSCRFGLARVHWAFKFFDSQGARSRPSRVSDFRELGSRSWEDFEEELEARLEDRAHLPGPAPRATHTHGALMETLLDYQWDRPEITSPTKPILRSSGRRLLDVESEAKEAEAALGGLVNAVFLLAPCPHSQRELLQFVSGCEAQAQRLPPTPKQVMEKLLPKRVREVMVARKITFYWVDTTEWSKLWESPDHLGYWTVCELLHHGGGTVLPSESFSWDFAQAGEMLLRSGIKLSSEPHLSPWISMLPTDATLNRLLYNSPEYEASFPRMEGMLFLPVEAGKEIQETWTVTLEPLAMHQRHFQKPVRIFLKGSVAQWSLPTSSTLGTDSWMLGSPEESTATQRLLFQQLVSRLTAEELHLVADVDPGEGRPPITGVISPLSASAMILTVCRTKEAEFQRHVLQTAVADSPRDTASLFSDVVDSILNQTHDSLADTASAASPVPEWAQQELGHTTPWSPAVVEKWFPFCNISGASSDLMESFGLLQAASANKEESSKTEGELIHCLAELYQRKSREESTIAHQEDS
Turning to B2, in assay [1], the binding entry was “binds”.

B3: endogenous MTBP (protein, UniProt Q96DY7 1-904)
chain: T1 sequence
For the molecule B3, the binding result in assay [2] is given as “binds”.

B4: 3HA-Treslin/TICRR fragment, amino acids 260–671 (domain or fragment, UniProt Q7Z2Z1 260-671)
chain: LRSGIKLSSEPHLSPWISMLPTDATLNRLLYNSPEYEASFPRMEGMLFLPVEAGKEIQETWTVTLEPLAMHQRHFQKPVRIFLKGSVAQWSLPTSSTLGTDSWMLGSPEESTATQRLLFQQLVSRLTAEELHLVADVDPGEGRPPITGVISPLSASAMILTVCRTKEAEFQRHVLQTAVADSPRDTASLFSDVVDSILNQTHDSLADTASAASPVPEWAQQELGHTTPWSPAVVEKWFPFCNISGASSDLMESFGLLQAASANKEESSKTEGELIHCLAELYQRKSREESTIAHQEDSKKKRGVPRTPVRQKMNTMCRSLKMLNVARLNVKAQKLHPDGSPDVAGEKGIQKIPSGRTVDKLEDRGRTLRSSKPKDFKTEEELLSYIRENYQKTVATGEIMLYACARNMISTV
On to B4, for which the binding entry in assay [1] is on record as “binds”.
